In patent EP0992240A1, “THERAPEUTIC AGENT FOR ERECTION FAILURE” (MOCHIDA PHARMACEUTICAL CO., LTD., priority 1997, dated 1998):

Legend:
PDE type V = target: T1, PDE type V (Canis lupus familiaris, UniProt O77746); assay: PDE inhibiting activity, type V; assay type: biochemical, dog; settings: PDE purified from canine aorta, 1 µM substrate cGMP or cAMP
T1 construct: By elution with a sodium chloride gradient (0 - 0.4 M), PDE types V and III were separated from the other isozymes; from tissue; host or cells: canine aorta

PDE type I = assay: PDE inhibiting activity, type I; assay type: biochemical, dog; settings: PDE purified from canine aorta; 1 µM substrate cGMP or cAMP; read-out: Inhibition Activity IC50 (µM) Type I
Procedure: On the basis of the method of Lugnier et al. (Biochem. Pharmacol., 35, 1743-1751, 1986), PDE was purified from the aorta in a dog. The canine aorta was minced and homogenized with a Waring Blender and a glass homogenizer in six volumes of a Tris-HCl buffer solution (pH 7.5, 20 mM) containing 2 mM magnesium acetate, 5 mM ethylenediaminetetraacetic acid (EDTA), 100 µg/mL of phenylmethylsulforyl fluoride and 15 mM 2-mercaptoethanol (2-ME), and centrifuged at 1200 x g for 30 min. The supernatant was separated and salted out with ammonium sulfate which was added to 45% saturation. The resulting precipitated fraction was resuspended in a Tris-HCl buffer solution (pH 7.5, 20 mM) containing 2 mM magnesium acetate and 1 mM 2-ME, dialyzed overnight and applied to a DEAE-trisacryl column (DEAE […] M:IBF). By elution with a sodium chloride gradient (0 - 0.4 M), PDE types V and III were separated from the other isozymes. The supernatant fraction of 45% saturated ammonium sulfate was further mixed with ammonium sulfate to 65% saturation and salted out. The resulting precipitated fraction was similarly applied to the DEAE-trisacryl column and eluted by a sodium chloride gradient (0 - 0.4 M) so as to separate PDE type I.
The thus obtained PDE types V, III and I were measured for their activity in accordance with the method of Thompson et al. (Adv. Cyclic Nucleotide Res., 10, 69-72, 1979) and the method of Wells et al. (Biochim. Biophys. Acta, 384, 430-443, 1975). Specifically, a purified PDE sample was added to 50 mM Tris-HCl buffer solution (pH 7.5) containing 1 µM of substrate cGMP or cAMP (containing tritium-labelled cGMP or cAMP), 1 mM EGTA and 2 mM magnesium acetate. For PDE activity measurement, enzymatically produced 5' GMP or 5' AMP was further hydrolyzed into guanosine or adenosine with snake venom and separated from the substrate by means of an ion-exchange resin (Dowex 1-X2), followed by measuring with a scintillation counter. The activity of each test compound was determined as a percentage of the PDE activity measured when it was added as a dimethyl sulfoxide solution (DMSO) and its IC50 (50% inhibition concentration) was calculated by the probit method. The final concentration of DMSO was adjusted to be no more than 2% in consideration of the effect on PDE activity.

[1] = read-out: Inhibition Activity IC50 (µM) Type V

Row | IC50 (PDE type V; [1]) [µM] | SMILES | IC50 (PDE type V; Inhibition Activity IC50 (µM) Type V) [µM] | IC50 (PDE type I) [µM]
1 |  | CCNC(=O)COc1cc2c(=O)c(Cc3cccnc3)cn3c4cc(Br)ccc4c(c1)c23 [Example 37, 9-bromo-2-(N-ethylcarbamoylmethyloxy)-5-(3-pyridylmethyl)-4H-pyrido[3,2,1-jk]carbazol-4-one] | 0.067 | > 30
2 |  | O=c1c(Cc2cccnc2)cn2c3cc(Br)ccc3c3cc(OCc4cccnc4)cc1c32 [Example 34, 9-bromo-5-(3-pyridylmethyl)-2-(3-pyridylmethyloxy)-4H-pyrido[3,2,1-jk]carbazol-4-one] |  | > 30
3 | 0.014 | O=c1c(Cc2cccnc2)cn2c3cc(Cl)ccc3c3cc(OCCCO)cc1c32 [Example 53, 9-chloro-2-(3-hydroxypropyloxy)-5-(3-pyridylmethyl)-4H-pyrido[3,2,1-jk]carbazol-4-one] |  | > 30
4 | 0.04 | Cc1cc2c(=O)ccn3c4ccc(Br)cc4c(c1)c23 [Example 50, 10-bromo-2-methyl-4H-pyrido[3,2,1-jk]carbazol-4-one] |  | > 30
5 | 0.017 | O=c1c(Cc2cccnc2)cn2c3cc(C(F)(F)F)ccc3c3cc(OCCCO)cc1c32 [Example 55, 2-(3-hydroxypropyloxy)-5-(3-pyridylmethyl)-9-trifluoromethyl-4H-pyrido[3,2,1-jk]carbazol-4-one] |  | > 30
6 | 0.042 | CCOC(=O)COc1cc2c(=O)c(Cc3cccnc3)cn3c4ccc(Cl)cc4c(c1)c23 [Example 47, 10-chloro-2-ethoxycarbonylmethyloxy-5-(3-pyridylmethyl)-4H-pyrido[3,2,1-jk]carbazol-4-one] |  | > 30

Row | SMILES | IC50 (PDE type V; [1]) [µM] | IC50 (PDE type V; Inhibition Activity IC50 (µM) Type V) [µM] | IC50 (PDE type I) [µM]
7 | O=c1c(Cc2cccnc2)cn2c3cc(Br)ccc3c3cc(OCCCO)cc1c32 [Example 38, 9-bromo-2-(3-hydroxypropyloxy)-5-(3-pyridylmethyl)-4H-pyrido[3,2,1-jk]carbazol-4-one] | 0.0079 |  | > 30
8 | O=c1c(Cc2cccnc2)cn2c3cc(Br)ccc3c3cc(O)cc1c32 [Example 31, 9-bromo-2-hydroxy-5-(3-pyridylmethyl)-4H-pyrido[3,2,1-jk]carbazol-4-one] | 0.0073 |  | > 30
9 | O=c1ccn2c3ccc(Cl)cc3c3cccc1c32 [Example 44, 10-chloro-4H-pyrido[3,2,1-jk]carbazol-4-one] | 0.43 |  | > 100

Like-named read-outs stand apart in the source and are kept apart here.
